{"source": "paper PMC4336329", "about": "(PLoS ONE, 2015)", "note": "Screen size: about 310,000 compounds; about 14,000 (4.5%) showed an effect of 50% or more. Effects have a minus sign here. This is one part of the list.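 Note: peak tail current of the secondary pulse compared with the same well before compound.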"}
{"target": "human ether-à-go-go-related gene (hERG) potassium channel (human, UniProt Q12809)", "sequence (Q12809 whole entry, looked up)": "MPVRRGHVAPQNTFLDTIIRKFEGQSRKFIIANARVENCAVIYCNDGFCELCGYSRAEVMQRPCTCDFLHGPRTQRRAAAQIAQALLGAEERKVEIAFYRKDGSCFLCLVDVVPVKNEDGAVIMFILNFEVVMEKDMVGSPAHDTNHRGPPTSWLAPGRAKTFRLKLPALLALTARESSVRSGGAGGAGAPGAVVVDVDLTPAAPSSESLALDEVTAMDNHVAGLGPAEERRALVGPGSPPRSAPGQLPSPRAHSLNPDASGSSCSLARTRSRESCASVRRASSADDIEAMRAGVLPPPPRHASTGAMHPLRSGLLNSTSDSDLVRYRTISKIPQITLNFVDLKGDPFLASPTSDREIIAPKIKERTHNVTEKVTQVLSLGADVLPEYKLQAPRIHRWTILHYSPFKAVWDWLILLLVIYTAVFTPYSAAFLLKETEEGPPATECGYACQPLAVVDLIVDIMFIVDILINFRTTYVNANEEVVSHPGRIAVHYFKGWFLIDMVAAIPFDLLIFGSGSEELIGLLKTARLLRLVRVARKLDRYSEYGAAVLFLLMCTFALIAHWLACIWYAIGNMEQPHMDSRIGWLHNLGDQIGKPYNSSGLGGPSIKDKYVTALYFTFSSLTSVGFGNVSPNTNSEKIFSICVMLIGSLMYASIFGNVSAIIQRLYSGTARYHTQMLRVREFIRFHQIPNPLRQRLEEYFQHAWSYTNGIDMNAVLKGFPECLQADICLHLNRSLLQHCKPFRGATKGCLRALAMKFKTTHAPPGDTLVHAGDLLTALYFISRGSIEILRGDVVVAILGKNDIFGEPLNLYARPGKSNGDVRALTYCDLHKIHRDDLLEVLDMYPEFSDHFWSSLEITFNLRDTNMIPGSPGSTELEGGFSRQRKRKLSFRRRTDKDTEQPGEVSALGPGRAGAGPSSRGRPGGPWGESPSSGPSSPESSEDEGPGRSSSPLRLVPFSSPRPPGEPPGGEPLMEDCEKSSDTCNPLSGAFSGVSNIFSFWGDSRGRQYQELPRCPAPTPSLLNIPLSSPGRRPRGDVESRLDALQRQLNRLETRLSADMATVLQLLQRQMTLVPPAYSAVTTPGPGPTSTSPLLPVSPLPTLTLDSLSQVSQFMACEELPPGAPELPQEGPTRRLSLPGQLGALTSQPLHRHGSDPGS", "assay": "primary screen, population patch clamp on CHO cells stably expressing hERG", "units": {"hERG current change (%, negative = inhibition) at 10uM": "%"}}
{"smiles": "CNC(=O)/C(=C\\c1ccc([N+](=O)[O-])cc1)NC(C)=O", "hERG current change (%, negative = inhibition) at 10uM": -28.8}
{"smiles": "Cc1cc(=O)[nH]c(N/N=C/c2ccccc2Cl)n1", "hERG current change (%, negative = inhibition) at 10uM": 12}
{"smiles": "Cc1cccc(OC(C)C(=O)Nc2cc(Cl)ccc2-n2cncn2)c1", "note": "(centres unmarked)", "hERG current change (%, negative = inhibition) at 10uM": -3.91}
{"smiles": "Cn1cc(S(=O)(=O)N2CCN(c3cccc(Cl)c3)CC2)c(=O)n(C)c1=O", "hERG current change (%, negative = inhibition) at 10uM": -4.88}
{"smiles": "O=c1[nH]c2ccc(NC(=S)Nc3ccccc3)cc2[nH]1", "hERG current change (%, negative = inhibition) at 10uM": -3.95}
{"smiles": "COc1ccccc1NC(=O)Oc1ccc(C(C)=O)cc1", "hERG current change (%, negative = inhibition) at 10uM": 13}
{"smiles": "Cc1ccc(C)n1-c1cccc(S(=O)(=O)N2CCOCC2)c1", "hERG current change (%, negative = inhibition) at 10uM": 7.55}
{"smiles": "CCCCNc1c([N+](=O)[O-])c(=O)n(C)c2ccccc12", "hERG current change (%, negative = inhibition) at 10uM": -9.14}
{"smiles": "COCCCNC(=O)c1cc(OC)c(OC)c(OC)c1", "hERG current change (%, negative = inhibition) at 10uM": 4.25}
{"smiles": "Cc1ccc(CNC(=O)c2cccc(-n3cnnn3)c2)cc1", "hERG current change (%, negative = inhibition) at 10uM": -13.3}
{"smiles": "CCc1ccc(-c2cc(C(F)(F)F)n3nc(C(=O)Nc4cnn(Cc5ccc(C)cc5)c4)cc3n2)s1", "hERG current change (%, negative = inhibition) at 10uM": -6.81}
{"smiles": "CCOc1ccc(N(CC(=O)NC(C)CC)S(C)(=O)=O)cc1", "note": "(centres unmarked)", "hERG current change (%, negative = inhibition) at 10uM": 5.96}
{"smiles": "O=C(Nc1ccc(F)cc1)c1nc[nH]c1C(=O)O", "hERG current change (%, negative = inhibition) at 10uM": 25.2}
{"smiles": "CCNc1nc(NCC)n2c(SCC(=O)Nc3cc(OC)ccc3OC)nnc2n1", "hERG current change (%, negative = inhibition) at 10uM": 9.07}
{"smiles": "Cc1cc(C)n(C2CCCCC2OC(=O)CCc2ccccc2)n1", "note": "(centres unmarked)", "hERG current change (%, negative = inhibition) at 10uM": 3.86}
{"smiles": "CCCCCCNCc1cccc(Br)c1.Cl", "hERG current change (%, negative = inhibition) at 10uM": -11.3}
{"smiles": "C/C=C/c1ccc(OCCCNCC(C)O)c(OC)c1", "note": "(centres unmarked)", "hERG current change (%, negative = inhibition) at 10uM": -29.2}
{"smiles": "CCOc1ccc(N(CC(=O)Nc2ccc(C)cc2)S(=O)(=O)c2c(C)[nH]c(=O)[nH]c2=O)cc1", "hERG current change (%, negative = inhibition) at 10uM": 12.8}
{"smiles": "COc1ccccc1N1CCN(Cc2nnnn2CCc2ccccc2)CC1.Cl", "hERG current change (%, negative = inhibition) at 10uM": 8.3}
{"smiles": "C/C(N)=C(/C#N)C(=O)CSc1nc2ccccc2c(=O)n1CCCO", "hERG current change (%, negative = inhibition) at 10uM": 8.08}
{"smiles": "COc1cc(NC(=O)COc2ccc(Br)cc2)ccc1NC(=O)C(C)C", "hERG current change (%, negative = inhibition) at 10uM": 4.1}
{"smiles": "Cc1ccc(-n2c(SCc3cn4ccsc4n3)nc3ccccc3c2=O)cc1", "hERG current change (%, negative = inhibition) at 10uM": 5.15}
{"smiles": "CCCc1cc(C(=O)NCc2ccc(OC)cc2)no1", "hERG current change (%, negative = inhibition) at 10uM": -0.821}
{"smiles": "COc1ccc(C(=O)CSc2ccc(-c3ccccc3)nn2)cc1", "hERG current change (%, negative = inhibition) at 10uM": -17.7}
{"smiles": "CCOc1ccc(-n2c(SCC(=O)Nc3cc(C)on3)nnc2-c2c[nH]c3ccccc23)cc1", "hERG current change (%, negative = inhibition) at 10uM": -2.22}
{"smiles": "CCCCCC(=O)Nc1cc(S(=O)(=O)N2CCOCC2)ccc1Oc1ccc(OCC)cc1", "hERG current change (%, negative = inhibition) at 10uM": -19.7}
{"smiles": "CC(C)(C)NCC(O)c1cc(O)cc(O)c1.O=S(=O)(O)O", "note": "(centres unmarked)", "hERG current change (%, negative = inhibition) at 10uM": 16.7}
{"smiles": "Cc1ccc(NC(=S)Nc2ccc(F)cc2)cc1", "hERG current change (%, negative = inhibition) at 10uM": 8.35}
{"smiles": "CCC(=O)Nc1ccc(NC(=O)c2ccco2)c(OC)c1", "hERG current change (%, negative = inhibition) at 10uM": 1.99}
{"smiles": "COc1cc(C(=O)NC(C)c2ccc(-n3ccnc3)cc2)cc(OC)c1C", "note": "(centres unmarked)", "hERG current change (%, negative = inhibition) at 10uM": -72.9}
{"smiles": "Cc1ccc(S(=O)(=O)N2CCN(c3cc4c(cc3[N+](=O)[O-])n(C)c(=O)n4C)CC2)cc1", "hERG current change (%, negative = inhibition) at 10uM": -4.2}
{"smiles": "COC(=O)c1ccc(NS(=O)(=O)c2c(C)[nH]c(C)c2C(=O)N2CCCC2)cc1", "hERG current change (%, negative = inhibition) at 10uM": 6.6}
{"smiles": "CCN1CCN(CCNC(=O)c2ccc(CS(=O)(=O)c3c(Cl)cccc3Cl)o2)CC1", "hERG current change (%, negative = inhibition) at 10uM": -8.19}
{"smiles": "O=C(CSc1nc(-c2ccccc2)cs1)Nc1cccc([N+](=O)[O-])c1", "hERG current change (%, negative = inhibition) at 10uM": 6.45}
{"smiles": "COc1cc2[nH]c(=O)n(Cc3ccc(C(=O)NCCCN4CCN(C)CC4)cc3)c(=O)c2cc1OC", "hERG current change (%, negative = inhibition) at 10uM": 7.67}
{"smiles": "CCCc1nc2oc3c(OC)ncnc3c2c2c1COC(C)(C)C2", "hERG current change (%, negative = inhibition) at 10uM": -21.5}
{"smiles": "COc1cc(/C=C/C(=O)OCC(=O)NCC2CCCO2)ccc1OCC#N", "note": "(centres unmarked)", "hERG current change (%, negative = inhibition) at 10uM": 5.63}
{"smiles": "CCO[C@@H]1OC(C(=O)NC2CC2)=C[C@H](C2CC2)[C@H]1CCCO", "hERG current change (%, negative = inhibition) at 10uM": 3.98}
{"smiles": "Cc1csc(SCC(=O)N(C)CC(=O)Nc2ccc(F)cc2)n1", "hERG current change (%, negative = inhibition) at 10uM": 15.6}
{"smiles": "N#Cc1ccc(CNc2cnccn2)cc1", "hERG current change (%, negative = inhibition) at 10uM": -17.5}
{"smiles": "O=C(c1ccccc1F)N1CCN(c2ccc([N+](=O)[O-])c(NCc3cccnc3)c2)CC1", "hERG current change (%, negative = inhibition) at 10uM": -45.5}
{"smiles": "COc1ccc(CN2C(=O)C(CC(C)C)Nc3ncnc(N4CCN(c5ccccn5)CC4)c32)cc1.O=C(O)C(F)(F)F", "note": "(centres unmarked)", "hERG current change (%, negative = inhibition) at 10uM": -45.9}
{"smiles": "COc1cc(OC)c2c(c1)OC(c1ccc(OC)c(OC)c1)C(O)C2=O", "note": "(centres unmarked)", "hERG current change (%, negative = inhibition) at 10uM": -1.88}
{"smiles": "CC(O)c1nc2ccccc2n1Cc1ccccc1", "note": "(centres unmarked)", "hERG current change (%, negative = inhibition) at 10uM": 3.15}
{"smiles": "N#C/C(=C\\C=C\\c1ccccc1)c1nc(-c2ccc3c(c2)OCO3)cs1", "hERG current change (%, negative = inhibition) at 10uM": -3.96}
{"smiles": "CCOc1ccc(Br)cc1S(=O)(=O)Nc1cccnc1", "hERG current change (%, negative = inhibition) at 10uM": 15.4}
{"smiles": "Cc1cc(=O)oc2cc(OS(C)(=O)=O)ccc12", "hERG current change (%, negative = inhibition) at 10uM": 4.31}
{"smiles": "C=CCn1cc(C(=O)N2CCN(CC)CC2)c(=O)c2cc(S(=O)(=O)N(CC)CC)ccc21", "hERG current change (%, negative = inhibition) at 10uM": -2.83}
{"smiles": "CC(c1cccs1)N(Cc1ccco1)C(=S)Nc1ccc(F)c(Cl)c1", "note": "(centres unmarked)", "hERG current change (%, negative = inhibition) at 10uM": 3.53}
{"smiles": "CCOc1ccccc1C(=O)NCC(=O)OCc1csc(CC(=O)Nc2ccc(C)cc2)n1", "hERG current change (%, negative = inhibition) at 10uM": -1.41}
{"smiles": "COc1ccc(S(=O)(=O)NC(C)C(=O)Nc2ccccc2)cc1Cl", "note": "(centres unmarked)", "hERG current change (%, negative = inhibition) at 10uM": 6.81}
{"smiles": "O=C(c1cccc(C(F)(F)F)c1)N1CCC(O)(CS(=O)(=O)Cc2ccc(Cl)cc2)CC1", "hERG current change (%, negative = inhibition) at 10uM": 17.5}
{"smiles": "CNC(=S)N/N=C/c1ccc(OCC(=O)Nc2c(C)cc(C)cc2C)c(OC)c1", "hERG current change (%, negative = inhibition) at 10uM": 0.125}
{"smiles": "O=[N+]([O-])c1ccc2nc(/C=C/c3ccc(Cl)cc3)[nH]c2c1", "hERG current change (%, negative = inhibition) at 10uM": 0.855}
{"smiles": "O=C(COC(=O)C1Cc2ccccc2CN1C(=O)c1ccccc1Cl)Nc1ccc(N2CCOCC2)cc1", "note": "(centres unmarked)", "hERG current change (%, negative = inhibition) at 10uM": -7.59}
{"smiles": "Cc1cc(C)c(C(=O)COC(=O)CNC(=O)c2ccccc2C)c(C)c1", "hERG current change (%, negative = inhibition) at 10uM": -12.7}
